Laboratory results: the supplement of paper PMC8285479
Counter-ions that a name gives are not always drawn. ± gives the standard deviation of the averaged measurements. Whole data set: some 1,900 compounds, median “normalised cell viability (NPI; 0 = phenylarsine oxide control, 1 = DMSO control)” near 1, cut for the lowest 2% near 0.039. The list shows a part of the results.

Test system: NCI-H1944
Experiment: normalised cell viability (NPI; 0 = phenylarsine oxide control, 1 = DMSO control) (fraction of DMSO control); NCI-H1944 is a non-small cell lung cancer line; higher = more viable cells (less compound toxicity)
Details: 6 days
[1] = glucocorticoid arm: hydrocortisone 2.75 uM co-treatment, compound 1 µM
[2] = glucocorticoid arm: hydrocortisone 2.75 uM co-treatment, compound 5 µM
[3] = glucocorticoid arm: hydrocortisone 2.75 uM pre-treated 2 days and continued, compound 1 µM
[4] = glucocorticoid arm: hydrocortisone 2.75 uM pre-treated 2 days and continued, compound 5 µM
[5] = glucocorticoid arm: vehicle, compound 1 µM
[6] = glucocorticoid arm: vehicle, compound 5 µM
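Further: CTB read-out in 384-well plates, mean of triplicate wells, normalised per plate against 1 µM phenylarsine oxide and 0.1% DMSO, compounds added 24 h after seeding.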

Row | Compound | normalised cell viability [1] | normalised cell viability [2] | normalised cell viability [3] | normalised cell viability [4] | normalised cell viability [5] | normalised cell viability [6]
1 | COC(=O)[C@H](NC(=O)c1cc(-c2ccccc2)nc2ccccc12)c1ccccc1 | 1 ± 0.016 | 1.02 ± 0.011 | 1.013 ± 0.0058 | 1.03 | 0.999 ± 0.0017 | 1.01
2 | N#Cc1cc2nc(O)c(O)nc2cc1[N+](=O)[O-] [CNQX disodium] | 0.995 ± 0.018 | 0.983 ± 0.02 | 1.002 ± 0.0072 | 1 ± 0.016 | 0.994 ± 0.0053 | 0.9973 ± 0.0015
3 | CN(C)C(N)=NCCC[C@H](N)C(=O)O [N^G,N^G-Dimethylarginine dihydrochloride] | 0.99967 ± 0.00058 | 0.998 ± 0.013 | 1 ± 0.02 | 1 ± 0.011 | 1.003 ± 0.0058 | 1 ± 0.0095
4 | C[C@@H](CN1CCC(Cc2ccccc2)CC1)[C@@H](O)c1ccc(O)cc1 [Ro 25-6981 hydrochloride] | 0.9373 ± 0.0078 | 1.13 ± 0.059 | 1.01 ± 0.02 | 1.14 ± 0.017 | 1.003 ± 0.0058 | 0.8997 ± 0.006
5 | CNc1nc(Nc2cn(C(C)(C)C#N)nc2C)ncc1C(F)(F)F | 1.01 ± 0.011 | 1.02 ± 0.026 | 1.02 | 1.03 ± 0.011 | 1 | 1.01 ± 0.013
6 | N[C@@H](CS(=O)O)C(=O)O [L-Cysteinesulfinic Acid] | 1.001 ± 0.009 | 0.987 ± 0.024 | 0.984 ± 0.014 | 0.99 ± 0.011 | 0.9693 ± 0.0051 | 0.985 ± 0.001
7 | COCCCN1CCC(NC(=O)c2cc(Cl)c(N)c3c2OCC3)CC1 [Prucalopride] | 1.03 ± 0.011 | 1.02 ± 0.01 | 1.02 ± 0.023 | 1.02 ± 0.022 | 1.003 ± 0.0061 | 0.997 ± 0.0052
8 | O=C(Cc1ccc(Cl)c(Cl)c1)OCCN1CCCC1 [AC 915 oxalate] | 0.991 ± 0.013 | 1.013 ± 0.0058 | 0.9883 ± 0.0087 | 0.991 ± 0.028 | 0.986 ± 0.013 | 0.98 ± 0.006
9 | Cc1cc(CN2CCN(c3c(Br)cnc4nc(-c5ccc(N6CCN(C)CC6)cc5)[nH]c34)CC2)no1 | 0.9427 ± 0.0094 | 0.868 ± 0.014 | 0.978 ± 0.029 | 0.994 ± 0.018 | 0.679 ± 0.1 | 0.371 ± 0.04
10 | Cc1ccc(=O)n(-c2ccccc2)c1 [Pirfenidone] | 0.989 ± 0.004 | 0.956 ± 0.02 | 1.001 ± 0.009 | 1.02 ± 0.071 | 0.9853 ± 0.0038 | 0.998 ± 0.012
11 | NO [Hydroxylamine hydrochloride] | 1.001 ± 0.009 | 0.993 ± 0.0061 | 0.9997 ± 0.0096 | 0.992 ± 0.031 | 1.007 ± 0.0058 | 1.01
12 | Nc1nc(Cl)nc2c1ncn2[C@@H]1O[C@H](CO)[C@@H](O)[C@H]1O [2-Chloroadenosine] | 0.998 ± 0.013 | 0.982 ± 0.011 | 0.998 ± 0.011 | 0.974 ± 0.052 | 0.9847 ± 0.0078 | 0.9883 ± 0.0078
13 | O=c1[nH]c2ccccc2n1CCCN1CCN(C(c2ccccc2)c2ccccc2)CC1 [Oxatomide] | 1.003 ± 0.0058 | 0.998 ± 0.06 | 1.01 ± 0.015 | 1.05 ± 0.067 | 1.013 ± 0.0058 | 1.023 ± 0.0058
14 | Nc1cc(Cl)c(NC2=NCCN2)c(Cl)c1 [p-Aminoclonidine hydrochloride] | 0.9767 ± 0.004 | 0.9917 ± 0.0085 | 0.978 ± 0.0095 | 0.978 ± 0.028 | 0.9917 ± 0.0072 | 0.987 ± 0.0017
15 | C[N+](C)(C)CC(=O)O [Betaine hydrochloride] | 1.013 ± 0.0058 | 1.02 ± 0.011 | 1.01 | 0.9845 ± 0.00071 | 0.9727 ± 0.0061 | 0.9897 ± 0.0055
16 | CC[C@H](CO)Nc1nc(NCc2ccccc2)c2ncn(C(C)C)c2n1 [Roscovitine] | 0.999 ± 0.001 | 0.957 ± 0.021 | 1.03 ± 0.029 | 1.06 ± 0.015 | 1 ± 0.01 | 0.9457 ± 0.0031
17 | OCCN(CCO)c1nc(N2CCCCC2)c2nc(N(CCO)CCO)nc(N3CCCCC3)c2n1 [Dipyridamole] | 1.006 ± 0.0075 | 0.987 ± 0.02 | 1.01 | 1 ± 0.011 | 0.9933 ± 0.004 | 1.01

Row | Compound | normalised cell viability [1] | normalised cell viability [2] | normalised cell viability [3] | normalised cell viability [4] | normalised cell viability [5] | normalised cell viability [6]
18 | Cc1ccc(NC(=O)c2cccc(C(C)(C)C#N)c2)cc1Nc1ccc2ncn(C)c(=O)c2c1 | 0.727 ± 0.064 | 0.58 ± 0.032 | 0.775 ± 0.016 | 0.678 ± 0.051 | 0.9443 ± 0.0058 | 0.685 ± 0.037
19 | CN1CCN(C(c2ccccc2)c2ccccc2)CC1 [Cyclizine 2HCl] | 1.027 ± 0.0058 | 0.987 ± 0.012 | 1.03 ± 0.021 | 0.987 ± 0.038 | 1 | 0.9917 ± 0.0061
20 | Cc1ccc(F)c(NC(=O)Nc2ccc(-c3cccc4[nH]nc(N)c34)cc2)c1 [Linifanib (ABT-869)] | 1.02 ± 0.011 | 0.995 ± 0.015 | 1.033 ± 0.0058 | 1.01 ± 0.02 | 1.003 ± 0.0058 | 0.9947 ± 0.0021
21 | CNC[C@H](O)c1ccc(O)c(O)c1 [Epinephrine HCl] | 1.02 ± 0.011 | 1.02 ± 0.015 | 1.017 ± 0.0058 | 1.017 ± 0.0058 | 1.003 ± 0.0058 | 0.993 ± 0.011
22 | CNC[C@H](O)c1ccc(O)c(O)c1 (racemic) [(±)-Epinephrine hydrochloride] | 1.01 ± 0.013 | 0.996 ± 0.026 | 1.02 ± 0.015 | 0.9983 ± 0.0015 | 1.02 | 1.01 ± 0.01
23 | CNC[C@H](O)c1ccc(O)c(O)c1 [(-)-Epinephrine (+)-bitartrate] | 0.9933 ± 0.0091 | 0.967 ± 0.015 | 0.9977 ± 0.004 | 0.952 ± 0.015 | 0.9767 ± 0.0025 | 0.9777 ± 0.0025
24 | CNC[C@H](O)c1ccc(O)c(O)c1 [Epinephrine Bitartrate] | 1 ± 0.0084 | 0.973 ± 0.012 | 1 ± 0.011 | 1.002 ± 0.0076 | 0.989 ± 0.011 | 1 ± 0.013
25 | C=CC(=O)Nc1cc2c(Nc3ccc(F)c(Cl)c3)ncnc2cc1OCCCN1CCOCC1 [CI-1033 (Canertinib)] | 0.961 ± 0.021 | 0.847 ± 0.019 | 0.955 ± 0.022 | 0.905 ± 0.042 | 0.923 ± 0.013 | 0.743 ± 0.032
26 | O=C(NCc1ccccc1)c1csc(Nc2ccncn2)n1 [Thiazovivin] | 0.9927 ± 0.0067 | 1.07 ± 0.01 | 0.992 ± 0.014 | 1.06 ± 0.02 | 0.9837 ± 0.0029 | 0.91 ± 0.027
27 | CNCc1ccc(-c2cc(-c3nc(-c4ccc(S(=O)(=O)C(C)C)cc4)cnc3N)on2)cc1 | 0.79 ± 0.021 | 0.363 ± 0.044 | 0.986 ± 0.027 | 0.864 ± 0.093 | 0.143 ± 0.042 | 0.052 ± 0.013
28 | CN1CCN(CCCN2c3ccccc3Sc3ccc(C(F)(F)F)cc32)CC1 [Trifluoperazine dihydrochloride] | 0.9693 ± 0.004 | 0.926 ± 0.012 | 1.02 ± 0.02 | 1.01 ± 0.011 | 1.003 ± 0.0058 | 0.828 ± 0.14
29 | O=C(CCc1ccc(O)cc1)c1c(O)cc(O)cc1O [Phloretin] | 0.989 ± 0.01 | 0.998 ± 0.013 | 1 ± 0.016 | 1.01 ± 0.014 | 0.989 ± 0.001 | 0.9767 ± 0.0076
30 | OC(CNCC(O)C1CCc2cc(F)ccc2O1)C1CCc2cc(F)ccc2O1 (centres undefined) [Nebivolol] | 0.977 ± 0.0099 | 0.937 ± 0.022 | 0.9677 ± 0.0042 | 0.958 ± 0.028 | 0.978 ± 0.0082 | 0.9757 ± 0.0046
31 | COc1cc2nccc(Oc3ccc(NC(=O)Nc4cc(C)on4)c(Cl)c3)c2cc1OC [Tivozanib (AV-951)] | 1.06 ± 0.01 | 1.1 ± 0.01 | 1.05 ± 0.021 | 1.07 ± 0.01 | 1.033 ± 0.0058 | 1.043 ± 0.0058
32 | CC(C)(C#N)c1cc(Cn2cncn2)cc(C(C)(C)C#N)c1 [Anastrozole; Arimidex] | 1.02 ± 0.011 | 1.04 | 1.02 ± 0.01 | 1.05 ± 0.01 | 1.005 ± 0.0081 | 1.01
33 | CCCCCCCCCCCCCCC[C@H](O)[C@H](N)CO (racemic) [DL-erythro-Dihydrosphingosine] | 1 ± 0.017 | 0.991 ± 0.017 | 1.01 ± 0.019 | 1.03 ± 0.029 | 0.986 ± 0.0069 | 0.66 ± 0.57
34 | CN(C)CCOC(C)(c1ccccc1)c1ccccn1 (centres undefined) [Doxylamine succinate] | 0.993 ± 0.013 | 0.986 ± 0.0027 | 0.9813 ± 0.0091 | 0.962 ± 0.016 | 0.9807 ± 0.0025 | 0.98 ± 0.0017
